Measured values published in article PMC4336329 (PLoS ONE, 2015).
In all, about 310,000 compounds went through this assay and about 14,000 (4.5%) showed an effect of 50% or more. Effects have a minus sign here. Some of the results follow.

Molecular target: human ether-à-go-go-related gene (hERG) potassium channel (human, UniProt Q12809)
Assay: primary screen, population patch clamp on CHO cells stably expressing hERG
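Note: peak tail current of the secondary pulse compared with the same well before compound.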

Chain of human ether-à-go-go-related gene (hERG) potassium channel (Q12809 whole entry, looked up): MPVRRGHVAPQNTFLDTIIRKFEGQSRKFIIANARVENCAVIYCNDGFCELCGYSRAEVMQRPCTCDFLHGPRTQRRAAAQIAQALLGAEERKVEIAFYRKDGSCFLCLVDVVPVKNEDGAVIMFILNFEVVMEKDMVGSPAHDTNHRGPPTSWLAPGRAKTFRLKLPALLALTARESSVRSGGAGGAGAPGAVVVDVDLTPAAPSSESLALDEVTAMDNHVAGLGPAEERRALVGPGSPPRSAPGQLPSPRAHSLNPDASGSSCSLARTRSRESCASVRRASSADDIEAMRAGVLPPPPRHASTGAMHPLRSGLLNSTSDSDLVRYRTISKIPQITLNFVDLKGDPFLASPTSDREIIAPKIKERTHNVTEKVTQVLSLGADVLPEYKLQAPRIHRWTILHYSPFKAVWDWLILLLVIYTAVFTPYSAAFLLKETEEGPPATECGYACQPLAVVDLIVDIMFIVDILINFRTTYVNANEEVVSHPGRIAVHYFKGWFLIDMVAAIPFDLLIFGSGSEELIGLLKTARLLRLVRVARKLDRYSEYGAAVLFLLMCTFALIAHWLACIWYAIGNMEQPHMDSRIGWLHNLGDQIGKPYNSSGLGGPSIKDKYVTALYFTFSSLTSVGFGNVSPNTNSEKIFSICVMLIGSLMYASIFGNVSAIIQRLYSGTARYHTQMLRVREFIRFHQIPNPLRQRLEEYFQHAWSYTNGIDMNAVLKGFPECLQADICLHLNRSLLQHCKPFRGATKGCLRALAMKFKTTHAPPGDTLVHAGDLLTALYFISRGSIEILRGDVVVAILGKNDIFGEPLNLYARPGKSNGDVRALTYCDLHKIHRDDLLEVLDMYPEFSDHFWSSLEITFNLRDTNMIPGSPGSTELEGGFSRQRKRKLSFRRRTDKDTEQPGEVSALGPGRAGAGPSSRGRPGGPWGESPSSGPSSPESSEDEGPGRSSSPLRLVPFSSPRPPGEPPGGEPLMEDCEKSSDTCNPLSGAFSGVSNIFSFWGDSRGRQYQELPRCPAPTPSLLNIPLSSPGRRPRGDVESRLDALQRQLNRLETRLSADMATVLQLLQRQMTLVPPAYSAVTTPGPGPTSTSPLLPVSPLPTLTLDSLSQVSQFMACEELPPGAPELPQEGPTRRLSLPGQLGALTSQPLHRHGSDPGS

Row | SMILES | hERG current change (%, negative = inhibition) at 10uM [%]
1 | Cn1c(C(=O)NCCCN2CCCCCC2)cc2c(=O)n(C)c3ccccc3c21 | -16.6
2 | O=C(CCCCCn1c(=O)[nH]c2ccsc2c1=O)N1CCN(C2CCCCC2)CC1 | -40.2
3 | Cc1c(OCC(=O)N2CCC(C(=O)O)CC2)ccc2c3c(c(=O)oc12)CCCC3 | 1.32
4 | S=C(Nc1ccccc1)Nc1cc(Cl)ccc1Oc1ccccc1 | 0.316
5 | Cc1ccc(C)c(NC(=O)CCc2nnc3ccc(NCc4ccco4)nn23)c1 | 14.8
6 | O=C(CCl)Nc1ccccc1Sc1ccccc1 | -10.7
7 | COc1ccc(Nc2nc(C(F)(F)F)nc(C)c2C#N)cc1 | 8.81
8 | COc1ccccc1OCc1cc(-c2ccccc2)no1 | -7.11
9 | CCOC(=O)NCc1ccc(Cl)c(Cl)c1 | -9.24
10 | O=C(O)CC1C(=O)NCCN1CCCc1ccccc1 (stereo not drawn) | 3.16
11 | Cc1ccc(Cn2c(SCCN3CCCCC3)nc3c2c(=O)[nH]c(=O)n3C)cc1 | -74.1
12 | CC(=O)c1sc(NC(=O)c2ccc(C(C)(C)C)cc2)nc1C | -6.02
13 | Cc1ccccc1C1c2[nH]c3ccccc3c2C[C@H]2C(=O)N(C3CC3)CC(=O)N12 (stereo partly drawn) | 8.06
14 | Cc1ccc2[nH]c(=O)c(C(c3nnnn3CC3CCCO3)N3CCc4ccccc4C3)cc2c1 (stereo not drawn) | -9.96
15 | Cc1cc(NC(=O)c2ccc(F)cc2F)n(-c2nc3ccccc3[nH]2)n1 | 25
16 | O=C(NCCc1ccc(Cl)cc1)C(=O)c1c[nH]c2ccccc12 | -10.8
17 | CN(C(=O)c1sc2nc(N3CCOCC3)c3c(c2c1N)CCCC3)c1ccccc1 | 19.5
18 | CCOC(=O)c1cc(-c2ccccc2)n(CC(=O)Nc2ccc(OC)c(OC)c2)c1C | 3.72
19 | CN=c1sc2ccccc2n1CC(O)c1ccccc1 (stereo not drawn) | -21.4
20 | COc1cc2c(C)nc3c(c(C)nn3-c3ccccc3)c2cc1OC | 10.4
21 | CCN1CCN(c2ccc(N)cc2C)CC1.Cl | 2.22
22 | CCCN(CC(=O)Nc1ccccc1Br)CC(=O)Nc1ccc(F)c(F)c1F | -16.4
23 | O=C(CSc1nnc(Cc2ccccc2)o1)c1ccc2c(c1)OCO2 | -0.908

Row | SMILES | hERG current change (%, negative = inhibition) at 10uM [%]
24 | O=S(=O)(c1ccccc1)c1nc(NCc2ccccc2)sc1Cl | -9.88
25 | OCCOCCn1c(CCNc2nc(-c3ccc(Cl)cc3)cs2)nc2cc(Cl)c(Cl)cc21 | 3.83
26 | Cc1nn2c3ccccc3n(Cc3ccccc3)c2nc1=O | -0.223
27 | O=C(O)c1cc(-c2ccc(-c3ccc(F)cc3)o2)nc2ccccc12 | 18.1
28 | CN(Cc1nc(-c2cnccn2)no1)C1CC(C)(C)NC(C)(C)C1 | 15.4
29 | O=C(COn1nnc2ccccc21)NCC1CCCCC1 | 25.6
30 | CCOC(=O)N1CCN(C(=O)c2cn(CCOC)c(=O)c3c2c2ccccc2n3C)CC1 | 5.61
31 | CN(Cc1ccc2nonc2c1)Cc1nc(CC2CC2)no1 | -9.36
32 | COc1ccc(CCNC(=O)Cn2nnc(-c3cccs3)n2)cc1OC | -7.76
33 | CCOC(=O)/C=C/CN(C(=O)OC(C)(C)C)S(=O)(=O)N1CC=CC1 | 10.9
34 | O=C(Nc1ccc(Cl)cc1)c1cncs1 | 3.5
35 | CC1=CC(=O)C=C/C1=C(/c1ccc(O)cc1C)c1ccccc1S(=O)(=O)[O-].[Na+] | 17
36 | Cn1c(NC(=O)c2ccco2)cc(=O)n(C)c1=O | 1.39
37 | CCC1CCCCN1CCCNC(=O)Cn1cc2c(n1)-c1c(oc(C(=O)N3CCCC3)c1C)CC2 (stereo not drawn) | 9.32
38 | CCCC[C@@H]1CNC(=S)N1CCCC | 11
39 | CCCOC(=O)NC(CC)COC(=O)Nc1cc(C)ccc1C (stereo not drawn) | -2.64
40 | COc1ccc(-n2c(C)cc(/C=C/c3nc(O)c([N+](=O)[O-])c(=O)[nH]3)c2C)cc1 | 3.06
41 | CCOc1ccc(NC(=O)CSc2nc3[nH]ncc3c(=O)[nH]2)cc1 | 10.3
42 | Cc1cccnc1CCNC(=O)C1CCC(=O)N(Cc2cccc(F)c2)C1 (stereo not drawn) | 17.3
43 | CCc1ccc(S(=O)(=O)Nc2cc3c(cc2C)n(C)c(=O)n3C)cc1 | -28.8
44 | CC(CNC(=O)c1cc(Cl)ccc1[N+](=O)[O-])NC(=O)c1cc(Cl)ccc1[N+](=O)[O-] (stereo not drawn) | -1.58
45 | CCCn1c(N)c(C(=O)CSc2nnc(Cc3ccccc3)o2)c(=O)n(C)c1=O | -0.939
46 | Cc1ccc(-c2[nH]c3ccccc3c2SCCNC(=O)c2cc3ccccc3oc2=O)cc1 | 17.4

Row | SMILES | hERG current change (%, negative = inhibition) at 10uM [%]
47 | CCCC(=O)N(c1ccc2oc(=O)sc2c1)S(=O)(=O)c1cccs1 | 6.31
48 | Cc1cc(C)c(S(=O)(=O)c2ccccc2Cl)c(=O)[nH]1 | 10.7
49 | COc1ccc2[nH]c3c(=O)n(CCCCCC(=O)NCCC(C)C)c(=S)[nH]c3c2c1 | 23.5
50 | Cc1ccc(C)c2[nH]c(=O)c(CCNC(=O)CC(C)C)cc12 | 0.124
51 | Cc1ccc(C)c2[nH]c(=O)c(C(c3nnnn3CCc3ccccc3)N3CCOCC3)cc12 (stereo not drawn) | -59.4
52 | CCCCCn1c2nc3ccccc3nc2c2c(=O)n(CC(C)C)cnc21 | 1.58
53 | Cl.O.O=C(c1ccc(F)cc1)C1CCN(CCn2c(=S)[nH]c3ccccc3c2=O)CC1 | -68.9
54 | Cc1ccc(C(=O)N2CCCCC2C(=O)O)o1 (stereo not drawn) | 2.84
55 | CCCOc1ccc(C(=O)NNC(=S)NC(=O)c2ccccc2)cc1 | 23.4
56 | COc1c(C)cc(S(=O)(=O)N2CCOCC2)c(C)c1C | 21.9
57 | N#Cc1cccc(NS(=O)(=O)c2ccccc2Cl)c1 | 2.57
58 | CCCCOc1ccc(C(=O)Oc2ccc(C)nc2)cc1 | 13.4
59 | CCCCn1c(O)c(C(CC)=Nc2cccc(C(=O)O)c2)c(=O)[nH]c1=O | 11.5
60 | CCCCCCCC(=O)OCC(COC(=O)CCCCCCC)OC(=O)CCCCCCC | 11.7
61 | O=C(Cc1cccs1)N1CCN(S(=O)(=O)c2cccc([N+](=O)[O-])c2)CC1 | -2.15
62 | CC1CCN(C(=O)CN(C2CCCCC2)S(C)(=O)=O)CC1 | 1.15
63 | N#Cc1nc(-c2ccc(OCc3ccccc3)cc2)oc1NCCCn1ccnc1 | -1.96
64 | CCOC(=O)C1CCN(C(=O)COc2cc(C)c(Br)cc2C)CC1 | -54.7
65 | COc1ccc(OC)c(NC(=O)C2C3CCC(O3)C2C(=O)O)c1 (stereo not drawn) | 4.75
66 | CC(=O)c1cccc(NC(=O)CSc2ccc(-c3sc(C)nc3C)nn2)c1 | 7.68
67 | CCC1=NN(C(=O)Cc2ccc(OC)c(OC)c2)C(O)(C(F)(F)F)C1 (stereo not drawn) | 12.5
68 | O=C(CCN1C(=O)C2C3C=CC(C3)C2C1=O)N1CCN(c2ccccn2)CC1 (stereo not drawn) | -5.28
69 | O=C(N/N=C/c1cccnc1)c1cccc(Br)c1 | 10.4

Row | SMILES | hERG current change (%, negative = inhibition) at 10uM [%]
70 | CCOC(=O)COn1c2c(c3c4no[n+]([O-])c4ccc31)CCCC2 | 3.89
71 | CCOc1cccc(C(=O)Nc2ccc(N(CC)CC)cc2)c1 | -11.7
72 | CCS(=O)(=O)Nc1ccc(C2=NN(C(C)=O)C(c3cccs3)C2)cc1 (stereo not drawn) | -3.58
73 | Cc1nnc(N/N=C/c2ccc(-c3ccc(Br)cc3)o2)n1N.Cl | -17.6
74 | COc1ccccc1OCCn1nnc2ccccc21 | 2.87
75 | CCN(C(=O)COC(=O)c1ccc(C)c(S(=O)(=O)N2CCOCC2)c1)C1CCS(=O)(=O)C1 (stereo not drawn) | 1.32
76 | CCOc1cc(N2CCOCC2)c(OCC)cc1NC(=O)CN1CCCC1 | 6.63
77 | CCCc1nnc(NC(=O)Cn2cnc3ccccc3c2=O)s1 | 12
78 | N#CC(C#N)=Cc1ccc(N2CCOCC2)cc1 | -10.7
79 | N#Cc1cc2c(nc1SCc1nc3ccccc3[nH]1)CCC2 | 1.99
80 | CN(C)c1ccc(/C=C/C(=O)c2ccc3c(c2)OCO3)cc1 | 14.4
81 | COc1ccc(C2(C)NC(=O)N(CC(=O)NCc3ccccc3F)C2=O)cc1 (stereo not drawn) | 23.7
82 | CCCCn1c(N)c(N(CC(C)C)C(=O)Cn2c(=O)oc3ccccc32)c(=O)[nH]c1=O | 20
83 | Cc1cc(C)c2nc(N)sc2c1 | 7.03
84 | O=C(Cc1ccccc1)NNC(=O)C1CCCC1 | 2.14
85 | COc1ccc(S(=O)(=O)N2CCC(C(=O)N3CCN(C)CC3)CC2)cc1OC | 17.3
86 | Cc1cc(C)c(NC(=O)c2cc(C(=O)O)ccc2C(=O)O)c([N+](=O)[O-])c1 | 14.1
87 | COCCOCC(=O)Nc1ccc(S(=O)(=O)Nc2cc(C)nc(C)n2)cc1 | 21.3
88 | Cc1ccc(C(=O)N/N=c2\oc3ccccc3cc2C(N)=O)cc1 | -17.7
89 | O=C(/C=C/c1ccccc1Cl)Nc1ccc(S(=O)(=O)Nc2ncccn2)cc1 | 30.3
90 | CC(C)Sc1nc2c([nH]c3ccccc32)c(=O)n1C | 17
